The source of these data is the RNAGym collection of RNA variant scans (doi:10.7554/elife.90254).

The source gives no read counts; variants with many changes may rest on few reads.

To fix the notation:
B1: LINE1-mini (parent)
chain: GGCAGAGCUCAACACAGCGUGGCAAAGUGGCUGUGGCUAGACUGCC

This series covers variants of B1. The series is described as follows: self-cleavage, relative activity (ratio to wild type); higher = more cleavage; in vitro, sequencing; the parent is a self-cleaving ribozyme.
Regarding GGCGGCGCUCAACACAGCGUCGCAAAUUGGCUGUGUCUAGACUGCC, the self-cleavage turned out to be 0.02.
In the case of GGUAGAGCUCCACACCGCGGGGCUAAGUGGCUUUGGCUAGACUGCC it was 0.02; in that of GGCAGAUCUCAAUACAGCGUGGCAAAGUGGCUGAGGCUAGACUGCC, 0.13; in that of GGCAGAGCUCAAGACAGCGUGGCAAAGUCGCGGUCGCUAGACUGCC, 0.18.
As for GACAGUGCUCAACACACCGUGGCAAAGUGGAUGUGGCUAGUCUGCC, the self-cleavage came out at 0.13.
To GGCACAACUCAACACAGAGUGGCCAAGUGGCUGUGGCUAGACUGCC belongs 0.06.
To GGCAUAGCGCAACACAGCGUGGCAAAGUGGCUGUGGUUAGACUGCC belongs 0.13; to GGCAGAGGUCAAAACAGCGUGGAAAAGUGGCUGUGGCUAGUCUGCC, 0.07.
In the case of GGCAGAGCUCAACACAGCGUGCCAAAGUGGCUGUGGCAAGGUUGCC it was 0.31; in that of GGCAGGGCUCAACACAGCGUGGCAAAGUGGCUGUGGCUUGACUGUC, 0.17; in that of GGCAGCGCUCAACACAGCGUGGCAAUGUGGUUGUGGCUAGACUGCC, 0.14.
As to GCCAGGGCUCAACACGGCGUGGCAAAGUGGUUGUGGCUAGAAUGCC, the self-cleavage is 0.03.
In the case of GGAAUACCUCAACACAGCGUGGCAAAGUGGCUGUGGCUAGACUGCC it was 0.11; in that of GUCACAGCUCAACACAGCGCGGUAAACUGGCUGUGGCUAGUCUGCC, 0.02; in that of GGCAGAGCUCAACACAGCUUGGCAAAGGGGCUGUGGCUAGACUACC, 0.04.
In the case of GGUAGAGCUCAACACAGCGUGGCAAAGUGGCCUGGGCUAGACUGCC it was 0.03; in that of GGCAGAGCACGACACAGCGUGGUAAAGUGGCUGUGGCUAGACUGCC, 0.02; in that of GGCAGAGCUUAAUACAGCGUAGCAAAGUGGCUGUGACUCGACUGCC, 0.39.
As for GGUAGAGCUCAACACAGAGUGGCAAAGUGGCUGUGGAUAGACUGCC, the self-cleavage came to 0.07.
In the case of GGCAGAGCUCAACACAGAGUGGCGAAAUGGCUGUGGCUAGACUGUC it was 0.27; in that of GGCAGAGCUCAACCCAGCGUGGCAACGUGGCUGUGACUAGACUGCA, 0.15.
In the case of GGCAGAGCUCAGCUUAGCGUGGCAAAGUGGCUGUGGCUAGACUGCC it was 0.04.
GGCAGAGCGCAACACAGCCUGGCAAAGUGGCUGGGGCUAAACUGCC: the self-cleavage came to 0.02.
GGCAGAGGUCUACACAGCGUGGCAAAGUGGCAGUGGCUACACUGCC: the self-cleavage is 0.
To UGCAGAGCUCAACACAGCGUGGCCAAGUGCCUGUCGCUAGACUUCC belongs 0.04.
Consider GGCAGAUCUCCACACAGCGUGGAAAAGUGGCUGUGGAUAGACUGCC, for which the self-cleavage worked out at 0.02.
As to GGCAGAGCACAACACAGGGUGGCAAACUGGCUGUGGCUAGACUGCC, the self-cleavage came out at 0.15.
In the case of GGCACAGCUCAACACAGCGUAGCAAAGUGGCUGUGGCUAGACUUCC it was 0.07.
In the case of GGCAGAGCUCAACACAGCGCGGCAAAGUGGCUGUCGCUAAACUGCC it was 0.02; in that of GGCAGAGCUCCACACAGCGUGGCGAAGUGGCUGUGGCUCGACUGCC, 0.
For GGCAGAGCUCAACACACCGUGGCACAUUGGCUGAGGCUAGACUGCA, the self-cleavage amounted to 0.05.
In the case of GGCAGAGCUCACCUCAGCGUGGCAAAAUGGCUGUGGCUAGACUGCC it was 0.02; in that of GGUAGAGCUCAACUCAGCGUGGCAAACUGGCUGUGGCUAGACUGCC, 0; in that of GGCAGAGAUCAACACAUCGUGGCAAAGUGGCUGUGGCUAAACUGCC, 0.24.
In the case of GACAGAGCUCAGUACAGCGUGGCAAAGUGGCUUUGGCUAGCCUGCC it was 0.01; in that of GGUAGAGCGCAACACAACGUGGCAAAGUCGCUGUGGCUAGACUGCC, 0.03; in that of GGCAGAGCUCAACACAGCGUGUCAAAGUGGAUGUGGCUAGACAGCC, 0.06.
In the case of GGCAGAGCUCAACACAGCGUCGCAAAGUUGCUGUGGCUAGACAGCC it was 0.08; in that of GGCAGAGCUGAACAGAGCGUGCCAAAGUGGCUGUGGCUAGACUGCC, 0.02.
For the variant GGCAGAGCUCAACACAGCGUGACGAAGUGCCUGUGGCUAGACUGCA, the self-cleavage is 0.18.
Consider GGCAGAGCUCAAGACAACGAGGCAAAGUGGCUGUGGCUGGACUGCC, for which the self-cleavage is 0.02.
In the case of GGCAGAGCUCAACACAGCGUGGGAAAGUGGCUGUUGCUAGAUUGCC it was 0.
In the case of GGCAGAGCUCAACACAGCGUGGAAAAGUAACUGUGGCUAGUCUGCC it was 1.07; in that of GACAGUGCUCAAUACAGCGUGGCUAAGUGGCUGCGGCUAAACUGCC, 0.2.
In the case of ACCAGAGUUAAACACAGCGUGGCAAAGUGGCUGUGGUUAGACUGCC it was 0.02; in that of GGCAGAGCUAAACACAGCGUGGCAAAGCGCCUGUGGCUAGACUGCC, 0.53.
In the case of GGCAGAGCUCACCACAGCGUGGCAAAGUGGCUCUGGCUAGAUUGCC, the self-cleavage was 0.01.
In the case of GGCAGUGCUCAAAACAGCGUGGCAAAGUGGCUGUGGCUAGACGGCC it was 0.33; in that of GGCAGAGCUCAACACAGCGUGACAACGUGGCUGUGCCUAGACUGCC, 0.05; in that of GGCAGAGCUCAACACAGCGUAGCAAAAUAGCUGUGACUAGACUGCC, 0.21.
To GCCAGAGCCCAACACAGCCUGGCAAAGUGGCUAUGGAUCGACUACC belongs 0.01; to GGCAGAGCUCUACACAGCAUGGCAAAGUGGCUGUGGUUAGACUGCC, 0.03; to GGUCUAGCUCAACACAGCGUGGCAAAGUGGCUAUGGAUAGACUGCC, 0.06.
On to GGCAGAACUCAACACAGCGUGGCAAAGUGGCUGUGGGUAUACUGCC, for which the self-cleavage was 0.07.
To GGCACAGGCCAACACAGCGUGGCAAAGUGGCUGUGGCCAGACUGCC belongs 0.02; to GGCAGAACGGAACACAGCGUGGCAAAGUGGCUGUGGCUAGACUCCC, 0.01; to GGCAGAGAACAACACAGCGUGGAAAUGUGGCUGUGGCUAGACUGCC, 0.17.
To GACAGAGCUCAACAAAGCGUGGCAAAGUCGCUGAGGCUAGACUGCC belongs 0.2.
In the case of CGCAGACCUCUAACCAGCGUCGCAAAGUGGCUGUGGCUAGAGUGCC, the self-cleavage stood at 0.02.
To GGCAAAGCUCAACACAGCGUGGCAAAGUGGCUUUGGCUACACUGCC belongs 0.02.
To GGCAGAGCCCUACACAGCGUGGAAAAGUGGCUGUGGCUAGACUACC belongs 0.01; to CGCAGAGCUCAACACAGAGUGGCAAAGUCUCUGUGGCUAUACUGCA, 0.01.
For GGCAGCGCUCAACACAGCGUGGCAAAGUGGCUUUGCCUAGACUGCC, the self-cleavage stood at 0.09.
In the case of GACAGCGAUCAAUACAGCGUGGCAAAAUGGCAGUGGCUAGACUGCC it was 0.6.
In the case of UGCAGAGCUCAACACAGCGUGUCAAAGUGGCUGUGGCUAUACUGCC it was 0.07; in that of GGUAGAGCUCAUCACAGCGUAGCAAAGUGGCUGUGGCUAGACUGCC, 0.53; in that of GGCAGAGCUCAACACAGCGCGGCAAUGUGGCUGUAGCCAGACUGCC, 0.03.
In the case of GGCAGAGCUCAACGCAACGUGGCAAGGUGGCUGUGGCUAGACUGCC it was 0.06.
Consider GGCAGAUCUCAACACGGUGUGGCGAAGUCGAUGUGGCUCGACUGCC, for which the self-cleavage stood at 0.27.
Consider GGCAGAGCUCAACACAGCGAGGCAAAGUGGCUGUGGCGAGAAUGCC, for which the self-cleavage came to 0.01.
In the case of GGCAGGGCUCAACACAGCGUUGCAAUGUUGCUGUGGCUAGACAGCC it was 0.01.
For GGCAGAGUUCAACACAGCGUGGCAAAGCAGCUGUGGCUAGACCGCC, the self-cleavage was determined as 0.05.
To GGCAGAGCUCAACACAUCGGGGGAAAGUGGCUGUGGCUAGACUGCC belongs 0.05; to UGCAGAGCACAACACAGCGUGGCAAAGUGGCUAUGGCUAGACUGCC, 0; to GGCAGAGCUCAACACAGCGUCGCAAAGUAGAUGUGGCUAGACUGCC, 0.2.
On to GGCAGAGCUCAAAACAGCGAGGCACAGUGUCGGUGGCUAGACUGCC, for which the self-cleavage is 0.01.
To GGCAGAGCUAAAUACAGCGUGGCAAAGUGGAUUUGGCUAGACUGCC belongs 0; to GGCAGAGCUCAACAAAUCGUGGCAAAGCGGCUGUGGCUAGACUGCC, 0.11; to GGCAGCGCUAAACACAGCGUGGCAAAGAGGCUGUGGCUAGACUGCU, 0.02.
To GGCAGGGCUCAACAAUGUGCGGCAAAGUGGCUGCGGCUAGACUGCC belongs 0.05.
To GGCACAGCUCAACAGAGCGUGGCAAAGUGGCUGUGGCCAGACUGCC belongs 0.02; to GGCAGAGCUCAACACCGCGUGGCAAAGCAGCUGUGGCUUGAAUGCC, 0.01.
For the variant GGCAGAGAUCAACACAGCGUGGCAAAGUGGCAGUGGCUACACUCCC, the self-cleavage came to 0.14.
To AGCAGAACUCAGCACAGCGUGGCAAAGGGCCUGUGGCUAGACUGCG belongs 0.07; to AGCAGAGCUCAUCACGGCGCGGCAAAUUGGCUGUCGGUAUACUGCC, 0.01; to UGCAGAGCUCAACACAAAAUGGCAAAGCGGCUGUGGCUAGACUCCC, 0.04.
To GGCAGAAGUCAACACAUCGUGGCAAAGUGGUUGUGGCUAGACUGCC belongs 0.02; to CGCAGAGCUCAACACAGCGUGACAAAGUGGCUGUGGCUUGACUGGC, 0.08.
To GCCAGAGCUCAACACAGCGUGUCAAAGUGGCUUUGGCUAGACUGCC belongs 0.05; to GGCAGAGCUCAACACAGCGUGGCAAAGUGCCUGUGUCUAGCCUGCC, 0.01.
For GGCAGAACUAAACACAGCGUGGCAAAGUGGCUGUGGCAAGACAACC, the self-cleavage was found to be 0.02.
To GGCAGAGCUCAACACAGCGUGGCAUAGUCGCUGUGACUAGACUGCC belongs 0.03; to GCUAGAGCUCGACACAGCGUGGCAAAGUGGCUGUGGCAAGACUGCC, 0.04.
Turning to GGAAGAGCUCAACCCAGCGUGGCAAAGUGGCUGUGGCUAUUCUGCC, the self-cleavage was determined as 0.03.
In the case of GGCAGAACUCAACACAGCGUGGCAAAGUUGCUGUGGCUAGACUGGC it was 0.2; in that of GGCGUAGCUCAACACAGAGUGGCAAAGUGGCUGUGGCUAUACUGCU, 0.03; in that of GGCAGAGCUCAACACAGCGUGGAAAAGUGACUGUGGCUAAACUGCC, 0.31.
To GGCAGAGCGCAACACACCGUGGAAAAGUGGCUGUGGCUAGACUGCC belongs 0.27; to GGCAGAGGGCAACACAGCGUGGCAAAGUGGCUGUUGCUUGACUGCC, 0; to GGCACGGCUCAACACAGCAUGGCAAAGUGACUGUGGCUAGACUGCC, 0.07.
To GUUAGAGCUCAACACAGCGUGGCAAAGUGGCUGUGGCUAGACUUCC belongs 0.08; to GGCCGAGCCCAACAUAGCGUGGCAAAGUGGCUGUGGCUAGAACGCC, 0.23; to GGCAGAGCGCAACACAGCUUGGUAAAGCGGCUGUGGCUAGACUGCC, 0.06.
Take GGCAGGGCUCAAAACAGCGUGGCGAAGUGGCUGUGGCUAGACUGAC: the self-cleavage stood at 0.04.
In the case of AGCGGAGCUCAACACAGUGUGUCAAAGUGGCUGCGGCUAGACUGCC it was 0.08; in that of GGCAGAGCUCAACACAGAGUGGCACAGUGGCUGGGGCUAGACUGCC, 0.03; in that of GACAGAGCUAAACACAGCGUGGCAAAGUGGCUGUGGCUAGACUGUC, 0.13.
To GGCAGAGCUCAACACAGCUUGGCAAAGUGGCUGUGGCUAAACUUCC belongs 0.05.
Turning to GGCAGAGCUCAACGCAGCGUGGCAAAGUGACUAUGGCUAGACUGCC, the self-cleavage is 0.05.
Take GACAGAGCUCAACACAGCGUUGCAAAGUAGCUGUGGCUAGACUGCA: the self-cleavage stood at 0.25.
In the case of GGCUGAGCUCAACACGGCGUGGUAAAAUGGCUGUGGCCAGAGUGCC it was 0.06; in that of GGCCGACCUCAACACUGCGUGGCAAAGUGGCUUUGGCUAGACUGCC, 0.13.
